About 540 (0.36%) of roughly 150,000 compounds showed an effect of 50% or more. The list shows a part of the results.
The compounds below were run on Plasmodium falciparum (assay: Primary screen in NF54 nanoGlo assay, in single point, at 2uM, 72h; a lower Z score goes with more inhibition). Conditions: timepoint 72 hour.
Type: functional, Erythrocyte

SMILES | % Inhibition [%] | Z score
CCN(CC)C(=O)CCN[C@@H](C(C)C)C1CCCCC1 | -1 | 0.1
O=C(COC(=O)CCc1ccccc1)NCc1ccc2c(c1)OCO2 | -13 | 1.69
O=C(O)C1C2CCC(CC2)C1C(=O)NCc1ccco1 (configuration not stated) | -9 | 1.84
Cc1cccc(C(=O)N(CCN(C(=O)c2cccc(C)c2)c2ccccc2)c2ccccc2)c1 | -6 | 0.94
O=C(NCC1(O)CCCCC1)[C@H]1CCN(Cc2ccccc2)C1 | -7 | 0.76
CCCN1CCC(NC(=O)CC(C)C)CC1 | -8 | 0.88
O=C(CCN(c1nc(-c2cccc(Br)c2)nc2ccccc12)C1CC1)Nc1ccc(F)cc1 | -2 | 0.29
Cc1oncc1CNC(=O)c1ccc(OC(F)F)cn1 | -7 | 1.35
O=C1CCC2(CCN(S(=O)(=O)Cc3ccccc3)CC2)N1Cc1ccc(F)cc1 | -9 | 1.31
Cc1cnc([C@H](C)NC(=O)NC2CCC(c3ccc(F)cc3)CC2)s1 (some centres not stated) | -4 | 0.51
Cc1c[nH]nc1C(=O)Nc1cnn(C)c1 | -16 | 1.58
CCCc1nc2ncnn2c(O)c1NC(=O)Nc1cccc(C(F)(F)F)c1 | 1 | -0.24
O=C(Cc1ccc(-c2ccccc2)cc1)N1CC[C@@]2(CCCNC2=O)C1 | -9 | 1.69
O=C(Nc1ccc(CC(=O)N2CCOCC2)cc1)c1cc(Cl)ccc1Cl | -20 | 1.85
CCC1(CC)CN(C(=O)c2cn(C)cn2)c2ccccc21 | -8 | 0.95
c1ccc(OCCOCCN2CCC[C@H]2c2ccsc2)cc1 | -2 | 0.26
O=C(Nc1c(C(=O)Nc2ccc(F)c(F)c2)oc2ccccc12)c1cc2ccccc2o1 | -13 | 2.46
CO[C@H]1CCOC[C@@H]1NC(=O)NC(C1CCCC1)C(F)(F)F (some centres not stated) | -4 | 0.55
COCc1noc(CN2C[C@@H]3CC[C@H]2CN(Cc2c(C)noc2C)C3)n1 | -3 | 0.53
CC[C@H]1CCCN1C(=O)Nc1cc(C)nn1Cc1ccc(OC)c(OC)c1 | -18 | 2.04
Cc1ccc(NC(=O)N[C@@H]2CCCC[C@H]2NC(=O)OC(C)(C)C)c(C)c1 | -10 | 1.56

SMILES | % Inhibition [%] | Z score
CCOc1ccc2ncc(S(=O)(=O)c3ccc(Cl)cc3)c(N(CC)CC)c2c1 | -2 | 0.22
Cc1nc(-c2c3n(c(=O)n(CC(=O)Nc4cccc(F)c4)c2=O)CCCC3)no1 | -3 | 0.56
COCc1nc(CNc2ccc(-c3ccccc3)cn2)cs1 | -8 | 0.83
Cc1cccc(CC(=O)N2CC[C@@H](NC(=O)c3cccnc3)[C@@H](CO)C2)c1 | -1 | 0.18
Cc1ccc(-c2csc(Cc3nc(-c4ccccc4C)no3)n2)cc1C | 12 | -1.17
CN(CC[C@H]1CCS(=O)(=O)C1)Cc1cscn1 | -15 | 2.8
O=c1n(CCOc2ccc(F)cc2)nc2c(S(=O)(=O)N3CCCCCC3)cccn12 | 2 | -0.29
COc1ccccc1-c1nc2ccc(C)cn2c1NC(=O)c1ccco1 | 5 | -0.69
CCCc1cnc(NC(=O)c2cnn(C)c2C)s1 | 31 | -0.68
CN1CCOC(C(N)c2ccc(Cl)cc2)C1 (configuration not stated) | 1 | -0.13
CCOc1ccc(-c2cc(C(=O)NC[C@@H](c3ccc(C)cc3)N3CCCC3)no2)cc1 | 10 | -1.21
CS(=O)(=O)N1C[C@H]2CC[C@@H](C1)N(C(=O)c1cccc(C(F)(F)F)c1)C2 | -2 | 0.29
COc1ccc(-n2nc3nc(NCCN4CCOCC4)nc(-c4ccc(F)c(Cl)c4)c3c2N)cc1 | -13 | 1.41
O=C(C1CCCCC1)N1C[C@H](c2nc(-c3ccccc3)no2)C2(CCOCC2)C1 | -1 | 0.19
NC(=O)[C@@H](c1ccccc1)N1CCN(C(=O)c2cc[nH]c2C2CC2)CC1 | -13 | 2.45
CC(C)CN1C(=O)C[C@H](Nc2ccc3c(c2)OCO3)C1=O | -2 | 0.46
CC[C@](C)(CO)CNc1cccc(C)n1 | -21 | 3.07
Cc1ccc(OCC(=O)N[C@@H](C)c2ccco2)cn1 | -15 | 1.35
Cc1cc(CN(C)C(=O)[C@@H](Nc2ccc(C(F)(F)F)cc2Cl)C(C)C)no1 | -9 | 0.84
Cc1cc(C(=O)N[C@H]2CCCNC2=O)c(O)cn1 | 3 | -0.55
